In PMC4336329 (PLoS ONE, 2015):
Hit rate of the full screen: of about 310,000 compounds, about 14,000 (4.5%) showed an effect of 50% or more. The effect is printed as a negative number. The list shows a part of the results.

biological target: human ether-à-go-go-related gene (hERG) potassium channel (human, UniProt Q12809); assay: primary screen, population patch clamp on CHO cells stably expressing hERG
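Further: peak tail current of the secondary pulse compared with the same well before compound.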

Sequence of human ether-à-go-go-related gene (hERG) potassium channel (Q12809 whole entry, looked up): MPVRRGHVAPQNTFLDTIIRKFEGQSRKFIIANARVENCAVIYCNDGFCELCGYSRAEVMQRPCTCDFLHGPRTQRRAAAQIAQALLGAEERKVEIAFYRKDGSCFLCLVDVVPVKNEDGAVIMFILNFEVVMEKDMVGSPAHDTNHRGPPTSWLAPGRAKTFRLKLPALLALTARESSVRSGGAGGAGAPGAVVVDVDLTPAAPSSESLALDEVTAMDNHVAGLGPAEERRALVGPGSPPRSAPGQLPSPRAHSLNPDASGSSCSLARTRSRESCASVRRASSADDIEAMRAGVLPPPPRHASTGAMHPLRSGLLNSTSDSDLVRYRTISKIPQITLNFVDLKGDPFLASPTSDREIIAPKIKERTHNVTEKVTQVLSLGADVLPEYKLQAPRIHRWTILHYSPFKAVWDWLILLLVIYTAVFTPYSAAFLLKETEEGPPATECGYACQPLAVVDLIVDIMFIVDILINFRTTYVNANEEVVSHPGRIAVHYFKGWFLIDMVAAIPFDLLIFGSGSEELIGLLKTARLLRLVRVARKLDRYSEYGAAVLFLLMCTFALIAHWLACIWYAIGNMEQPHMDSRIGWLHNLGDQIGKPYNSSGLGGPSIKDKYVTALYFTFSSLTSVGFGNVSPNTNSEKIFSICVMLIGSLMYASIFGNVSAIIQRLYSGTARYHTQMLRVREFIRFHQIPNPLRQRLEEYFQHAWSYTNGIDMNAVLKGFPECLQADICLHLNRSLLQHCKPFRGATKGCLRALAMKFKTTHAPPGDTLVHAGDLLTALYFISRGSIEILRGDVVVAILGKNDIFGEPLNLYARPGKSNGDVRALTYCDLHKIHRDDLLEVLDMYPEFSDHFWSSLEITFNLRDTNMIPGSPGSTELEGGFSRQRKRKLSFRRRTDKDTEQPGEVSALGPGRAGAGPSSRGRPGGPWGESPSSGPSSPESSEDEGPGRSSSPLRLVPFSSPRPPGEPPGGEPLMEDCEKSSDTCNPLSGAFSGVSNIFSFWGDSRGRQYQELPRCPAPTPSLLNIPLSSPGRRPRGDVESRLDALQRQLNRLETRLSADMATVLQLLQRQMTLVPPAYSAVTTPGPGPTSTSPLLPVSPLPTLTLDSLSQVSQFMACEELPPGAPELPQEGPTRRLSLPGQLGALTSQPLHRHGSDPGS

Structure (SMILES)	hERG current change (%, negative = inhibition) at 10uM [%]
CCN(CC)CCCNC(=O)c1cc(-c2ccc3c(c2)OCO3)on1	-18.8
O=C(CSc1ccc(Br)cc1)NCC1CCCO1 (stereo not shown)	28.1
O=C(CN1CCN(Cc2ccccc2)CC1)Nc1nnc(C(F)(F)F)s1	17.6
Cc1ccccc1C(=O)NC1CC2CCC(C1)N2Cc1ccccc1 (stereo not shown)	-25
COc1cccc(CN2C(=O)CCC2(C)C(=O)NC2CCCCCC2)c1 (stereo not shown)	-11.7
O=C(Nc1cccnc1Cl)c1cc(-c2cccc(Cl)c2)on1	5.57
CC(NC(=O)Nc1ccc([N+](=O)[O-])cc1)C(c1ccccc1)N1CCOCC1 (stereo not shown)	-11
COC(=O)c1cc(S(=O)(=O)NCc2cccc(OC)c2)cn1C	-12.7
O=C(Cc1ccccc1)Nc1ccc(NC(=O)C2CC2)nc1	5.56
O=C(CN1C(=O)NC(c2ccccc2)(c2ccccc2)C1=O)Nc1ccc2[nH]c(=O)[nH]c2c1	6.01
O=C(CCS(=O)(=O)c1cc2c(cc1Cl)NC(=O)CO2)NCCc1ccccc1	10.6
CC(C)Cc1nnc(NC(=O)CCC(=O)N2CCN(c3ccccc3F)CC2)s1	17
CCn1c(CSc2nc3ccccc3s2)nnc1SCC(N)=O	-6.87
Cl.N=c1sccn1CC(=O)N1CCc2ccccc21	-8.84
O=C1OCCC1Sc1nc2ccccc2n1Cc1ccccc1 (stereo not shown)	-46.3
CCOC(=O)c1c(N2C(=O)Nc3cc(Cl)c(Cl)cc3N2O)sc2c1CCCCC2	7
CCOC(=O)C(NC(=O)c1cccc(Cl)c1)(Nc1sc2c(c1C(N)=O)CCC2)C(F)(F)F (stereo not shown)	-25
CCN1CCN(CC(=O)Nc2nc3ccc(C)cc3s2)CC1	-34.5
O=C(Nc1cc(S(=O)(=O)N2CCOCC2)ccc1OCC(F)(F)F)c1ccc(N2CCCC2=O)cc1	-3.15
Cc1cccn2c(=O)c(C=O)c(Cl)nc12	13.2
Cc1ccc(-c2cc(C(F)(F)F)n3nc(C(=O)Nc4ccon4)cc3n2)cc1C	-6.47
O=[N+]([O-])c1cc(F)c(N2CCCC2)cc1N1CCNCC1	-8.28

Structure (SMILES)	hERG current change (%, negative = inhibition) at 10uM [%]
CCOC(=O)c1cn(Cc2ccc(C)cc2)c2cc(F)ccc2c1=O	-10.9
Cc1ccccc1-c1nc(CS(=O)(=O)CC(=O)NCCCN2CCCC2=O)c(C)o1	3.49
O=C(NCCCn1ccnc1)c1cn(-c2ccccc2)nc1-c1ccccc1	-47.1
CCN(CC(=O)NC(C)(C)C)C(=O)C(c1ccccc1)c1ccccc1	23.5
Cc1ccccc1/C(N)=N/OC(=O)c1ccc(F)cc1	16.4
O=C(Nc1nccs1)C(c1ccccc1)N1CCCCC1 (stereo not shown)	-4.97
O=C(Nc1ccc(N2CCCCCC2)cc1)c1ccc[nH]1	-15.6
O=C(Nc1ccccc1C(=O)N1CCN(Cc2ccccc2)CC1)c1ccccn1	-26.1
O=C(COc1ccccc1[N+](=O)[O-])N1CCN(c2ccccn2)CC1	-7.33
CCCN(Cc1ccccc1)C(=S)NC(=O)c1ccccc1[N+](=O)[O-]	18.6
O=C(Nc1cc2c(oc1=O)CCCC2=O)c1ccc(Cl)cc1	-11.8
CC(C)(C)OC(=O)N1CC=C2C(C#N)=C(N)C(C#N)(C#N)C(c3cccs3)C2C1 (stereo not shown)	12.4
Cc1ccc(S(=O)(=O)N2CCOCC2)cc1C(=O)Nc1c(C)n(C)n(-c2ccccc2)c1=O	9.5
Cc1cc2nc3c(nc2cc1C)C1(C(=O)O)CCC3(C)C1(C)C (stereo not shown)	3.15
N#C/C(=C\C=C\c1ccccc1)C(=O)N1CCCC1	16.6
C=CCNC(C(=O)Nc1cccc(OC)c1)c1ccccc1 (stereo not shown)	9.29
CC(C)(C)N1[C@@H](CC(=O)O)c2cc(C(F)(F)F)ccc2S1(=O)=O	11.2
OCCCNc1ncnc2sc3c(c12)CCN(Cc1ccccc1)C3	-37.9
CCc1ccc(C(C(=O)NCCOC)N(C(=O)Cn2nnc3ccccc32)c2cccnc2)cc1 (stereo not shown)	-12.2
CCC(=O)N1CCN(c2ccccc2NC(=O)COc2ccccc2Cl)CC1	-42.2
CC1CCCN(CCOCCOc2ccccc2-c2ccccc2)C1.O=C(O)C(=O)O (stereo not shown)	-72.9
N#Cc1ccccc1NC(=O)c1ccc2c(c1)OCO2	-4.97

Structure (SMILES)	hERG current change (%, negative = inhibition) at 10uM [%]
CCCCn1c(-c2c(Cl)c(C)nn2C)n[nH]c1=S	5.7
O=C(O)CCCn1cc(NC(=O)COc2ccc([N+](=O)[O-])cc2)cn1	2.66
Cc1ccc(/C=C/c2ccc(=O)n(Cc3ccc(Cl)cc3Cl)n2)cc1	-2.81
Cc1nn(C)c(C)c1S(=O)(=O)N(CC(=O)N1CCc2ccccc2C1)c1ccc(C(C)C)cc1	-34.4
N=c1c2c3c(sc2ncn1CCCN1CCOCC1)CCCCC3	-51.2
Cc1nn(-c2ccccc2)c(C)c1-c1nnc(-c2c(C)nn(-c3ccccc3)c2C)o1	9.56
N#CC(C(=O)CCN1C(=O)C2CC=CCC2C1=O)c1nc2ccccc2[nH]1 (stereo not shown)	7.24
Cc1ccc(C(=O)O/N=C2\CCSc3ccc(C)cc32)cc1	-0.571
CCN(CC)c1ccc(/C=C(\C#N)c2ccccn2)cc1	-5.69
Cn1c(NC(=O)CCC2CCCCC2)cc(=O)n(C)c1=O	-11.4
CC(CN1CCCC1)OC(=O)c1cccc(F)c1.Cl (stereo not shown)	7.11
CNS(=O)(=O)c1cnccc1N1CCN(c2cccc(Cl)c2)CC1	-27.5
CSc1ccccc1NC(=O)c1ccc(N2CCCC2=O)cc1	-16.3
CN1C(=O)Cc2cc(S(=O)(=O)N3CCN(c4cccc(C(F)(F)F)c4)CC3)ccc21	13.7
COc1ccc(N(CC(=O)NCc2ccccc2C)S(=O)(=O)c2ccccc2[N+](=O)[O-])c(OC)c1	-6.94
CN1CCN(c2nc3ccccn3c(=O)c2/C=C(\C#N)S(=O)(=O)c2ccccc2)CC1	-24.9
COc1cccc(NC(=O)C2CC(=O)N(Cc3ccco3)C2)c1 (stereo not shown)	0.0564
Cc1nc2ccccc2c(=O)n1/N=C/c1ccc(N(C)C)cc1	5.95
CC1=C[C@H](C)[C@H](c2c(F)cccc2Cl)CC1=O	6.22
CC1SCC(=NOCc2c(Cl)cccc2Cl)CS1 (stereo not shown)	17.3
COc1ccc([N+](=O)[O-])cc1NC(=O)c1ccccc1SC	-16.6
O=C(CN(Cc1ccc(Cl)cc1)C(=O)c1csnn1)NCc1ccccc1	-56.7

Structure (SMILES)	hERG current change (%, negative = inhibition) at 10uM [%]
Nc1nc(F)cc(NCc2ccccc2)n1	-1.04
Cc1cc2nc(-c3ccc(SCC(=O)Nc4ccc(S(=O)(=O)NC5CC5)cc4)nc3)[nH]c2cc1C	6.68
COc1cc2c(cc1NC(C)=O)CCCC2	14.2
COc1ccc(C(=O)NCCc2nnc(SCC(=O)Nc3ccccc3F)n2C)cc1	-7.59
COc1ccc(C(=O)Nn2c(C)ccc2C)cc1OC	1.55
O=C(Nc1ccc2nc3n(c(=O)c2c1)CCCC3)c1cncc(Br)c1	-43.2
NC(=O)c1nsc(C(=O)N(c2ccc(F)cc2)C(C(=O)NCC2CCCO2)c2c[nH]c3ccccc23)c1N (stereo not shown)	-2.38
O=C(Oc1ccc2cccc(OC(=O)N3CCOCC3)c2c1)N1CCOCC1	16.7
COc1coc(C(O)C[N+](=O)[O-])cc1=O (stereo not shown)	-4.85
CCN1CCN(C(=O)C2(NC(=O)Nc3cccc(F)c3)CCCCC2)CC1	4.94
COc1cccc(C(=O)Nc2cc(C(F)(F)F)ccc2Cl)c1	4.29
CCCCCCCN1C(Nc2ccccc2)=NC[C@@H]1C	-68
COc1cccc(Cn2c(NCc3cccnc3)nc3c2c(=O)n(C)c(=O)n3C)c1	-25
CC(C(=O)Nc1ccccn1)(c1ccccc1)c1ccccc1.Cl	0.974
COc1ccc(/C(N)=N/OC(=O)CCC2CCCC2)cc1OC	1.46
CC(=O)NCCNC(=O)c1cccc(NS(=O)(=O)c2ccc3c(c2)OCCO3)c1	-2.65
CCc1cc2ccc(C)c(C)c2nc1SCC(=O)NNC(=O)c1ccco1	11.8
COc1ccc(/C=C2\Sc3ccc(C(=O)NCC4CCCO4)cc3N(C)C2=O)cc1 (stereo not shown)	2.24
CC(C)CC(=O)Nc1nnn(C)n1	-1.5
CCN(CC)CCCNC(=O)c1cc(-c2ccccc2)c(N2CCCCC2)s1	-51.7
COc1ccc(C(CC(=O)Nc2cc(OC)cc(OC)c2)n2cccc2)cc1 (stereo not shown)	2.58
COc1ccc(Cl)cc1NC(=O)C/C(C)=N/NC(=O)c1ccccc1Cl	19.6
